# Reference: ChEMBL document CHEMBL4888484, “Replenishing the malaria drug discovery pipeline: Screening and hit evaluation of the MMV Hit Generation Library 1 (HGL1) against asexual blood stage Plasmodium falciparum ,using a nano luciferase reporter read-out” (2022)
# Among all 150,000 compounds or so, about 540 (0.36%) showed an effect of 50% or more. Some of the results follow.
# Tested on: Plasmodium falciparum
# Test: Primary screen in NF54 nanoGlo assay, in single point, at 2uM, 72h; a lower Z score goes with more inhibition
# Format: functional, Erythrocyte
# Settings: timepoint 72 hour
SMILES,% Inhibition,Z score,% Inhibition (2 µM)
CC(C)(C)C1CCC2(CC1)NCCN=C2NCc1ccc(Cl)cc1 (stereo not drawn),-3%,0.47,
O=S(=O)(Cc1cc(Cl)cc(Cl)c1)NCCC(F)(F)F,-10%,1.73,
Cc1oncc1C(=O)N(Cc1cccn1C)C1CC1,0%,-0.06,
Cc1cc(N2CCCNC(=O)C2)nc(N(C)C)n1,-3%,0.57,
O=C(Nc1cccc(C2CC2)n1)[C@H]1CCOC2(CCC2)C1,-21%,2.09,
COc1ccc2c(c1)CCN(S(=O)(=O)CCNC(=O)c1snnc1C)C2,-8%,0.89,
CCC(NCC(O)c1ccco1)c1ccccc1F (stereo not drawn),-11%,1.22,
CC(=O)N(C)c1ccc(/C=C2\C=Cc3ccccc32)cc1,-7%,0.86,
Cc1ccc(C(=O)Nc2ccc(N3CCCN(C(=O)C4CCCC4)CC3)c(C(=O)N3CCCCC3)c2)cc1,-4%,0.58,
O=C(O)c1ccccc1[C@H]1CCN(c2ncccn2)C1,-3%,0.6,
O=C(C1CC1)[C@@H]1CN(C(=O)c2ccnn2C2CCCC2)CCO1,-10%,1.26,
CCCOc1ccc(C(=O)N2CCCO[C@@H](C)C2)cc1,1%,-0.17,
CCOc1cccc(Cl)c1CN1CC[C@H](c2nc(C)no2)C1,5%,-1.01,
c1cnn(-c2ccc(CN3CCOC4(CCOCC4)C3)cc2)c1,-1%,0.14,
Cc1cc(-c2nc(-c3ccccc3)nn2-c2ccccn2)c(=O)n(C)c1C,-10%,1.4,
Cc1ccc(S(=O)(=O)Nc2ccc(C)n(CC(=O)NCC(C)C)c2=O)cc1,-22%,3.01,
COC(=O)c1ccc(C(=O)NC2CCN(c3cc4c(nn3)CCCC4)CC2)cc1,-16%,2.71,
CC1CCN(S(=O)(=O)CC(=O)Nc2ccc(OCc3nccn3C)cc2)CC1,-5%,0.84,
Cc1ccsc1CN(C)C(=O)[C@H]1CCc2nnn(C)c2C1,-4%,0.77,
CCCN(C(=O)[C@H]1CC(=O)N(C(C)C)C1)C1CC1,0%,-0.04,
Cc1nc(N2CCC(C(=O)NC[C@H]3CCc4ccccc4O3)CC2)nc2cc(S(C)(=O)=O)ccc12,-16%,1.93,

SMILES,% Inhibition,Z score,% Inhibition (2 µM)
CC(C)CC[C@H]1CCCN1C(=O)c1ccc2[nH]c(=O)n(C)c2c1,3%,-0.5,
Cc1noc(C)c1CN(C)C(=O)c1c[nH]nn1,-5%,0.76,
COCCN1C[C@]2(CCCN(C(=O)Cc3ccc(O)cc3)C2)CCC1=O,-12%,2.44,
Cc1ccc2nc(-c3cccc(Cl)c3)c(NC(=O)COc3ccc(Cl)cc3)n2c1,16%,-1.79,
COc1cccc(CCc2ccccc2OC[C@H](CN(C)C)OC(=O)CCC(=O)O)c1,,,7%
O=C(NC1CCCCC1)c1cc2n(n1)CCCC2,-14%,1.56,
O=C(Nc1cccc(-n2cn[nH]c2=O)c1)C1CC12CCOC2 (stereo not drawn),-16%,1.49,
Cc1ccc(C(=O)N2CCC(N3C(=O)N(Cc4cccnc4)C[C@]34CCOC4)CC2)cc1,-4%,0.58,
CCN(C1CCN(C(=O)Nc2ccc3sncc3c2)CC1)S(C)(=O)=O,-8%,1.18,
Cc1ccc(O)c(NS(=O)(=O)N(C)C(C)C)c1,-4%,0.8,
CC(C)[C@@H](C(=O)N1CCC2(CC1)CN(C)CCN2C)c1ccc(Cl)cc1,1%,-0.11,
C[C@H](NC(=O)C(=O)N1CCCCC1)c1nncn1C,20%,-2.54,
Cc1noc(C)c1CC(=O)NC1(c2cccs2)CCCC1,6%,-0.87,
COc1cccc([C@@H]2CNC(=O)c3nc(-c4ccc(C(=O)N(C)C)o4)[nH]c3C2)c1,-4%,0.72,
COc1cccc(C2C(S(=O)(=O)N(C)C(C)C)CON2C)c1OC (stereo not drawn),-22%,2.37,
CC(C)CN1CCN(S(=O)(=O)C2CCC(C(F)(F)F)CC2)CC1=O (stereo not drawn),-10%,1.32,
CCOC(=O)C[C@H](NC(=O)c1ccc(NC(=O)C2CCC2)cc1)C(F)(F)F,5%,-0.66,
O=C(N[C@H]1CCc2n[nH]c(=O)cc2C1)c1cc(C2CC2)n[nH]1,-20%,3.37,
Cc1cccc(-c2noc(-c3cccn4c(=O)n(CC(=O)Nc5cccc(C(F)(F)F)c5)nc34)n2)c1,-7%,1.08,
O=C(c1nccc2ccccc12)N1CC[C@@H](n2c(=O)[nH]c3cccnc32)C1,-3%,0.62,
CC(=Cc1ccc(C)cc1)C(=O)N1C[C@]2(CO)CCCC[C@]2(CO)C1,-2%,0.21,
